Assay results published in PubChem BioAssay (NCATS).
Inconclusive means that the source gave no clear call. Such entries were picked first, then a sample of the others. No potency is given beside an inconclusive call; the fits are too rough. Activity calls are given as the source filed them. Calls come from the whole dose curve; as a rule, active = well fitted inhibition curve with a large enough effect; inconclusive = small, poorly fitted or top-dose-only effect, or another doubt; inactive = no such curve, though single readings can be large or run the other way.

Target: DNA polymerase eta (Homo sapiens) (UniProt Q9Y253)
Assay: qHTS for Inhibitors of Polymerase Eta: Confirmatory Assay for Cherry-picked Compounds (AID 720502)
Conditions: Pol eta primer extension, TAMRA/BHQ fluorescence, 10 min
Outline: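 The reaction starts with 50 nM final labeled DNA substrate added to Pol eta (10 nM) that had sat with compound for 15 min. TAMRA emission at 598 nm is read at 0 and 10 min.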
Potency is the fitted concentration of half-maximal effect; tags give direction and shape of the fitted curve.

Sequence of UniProt Q9Y253 (Q9Y253 whole entry, looked up): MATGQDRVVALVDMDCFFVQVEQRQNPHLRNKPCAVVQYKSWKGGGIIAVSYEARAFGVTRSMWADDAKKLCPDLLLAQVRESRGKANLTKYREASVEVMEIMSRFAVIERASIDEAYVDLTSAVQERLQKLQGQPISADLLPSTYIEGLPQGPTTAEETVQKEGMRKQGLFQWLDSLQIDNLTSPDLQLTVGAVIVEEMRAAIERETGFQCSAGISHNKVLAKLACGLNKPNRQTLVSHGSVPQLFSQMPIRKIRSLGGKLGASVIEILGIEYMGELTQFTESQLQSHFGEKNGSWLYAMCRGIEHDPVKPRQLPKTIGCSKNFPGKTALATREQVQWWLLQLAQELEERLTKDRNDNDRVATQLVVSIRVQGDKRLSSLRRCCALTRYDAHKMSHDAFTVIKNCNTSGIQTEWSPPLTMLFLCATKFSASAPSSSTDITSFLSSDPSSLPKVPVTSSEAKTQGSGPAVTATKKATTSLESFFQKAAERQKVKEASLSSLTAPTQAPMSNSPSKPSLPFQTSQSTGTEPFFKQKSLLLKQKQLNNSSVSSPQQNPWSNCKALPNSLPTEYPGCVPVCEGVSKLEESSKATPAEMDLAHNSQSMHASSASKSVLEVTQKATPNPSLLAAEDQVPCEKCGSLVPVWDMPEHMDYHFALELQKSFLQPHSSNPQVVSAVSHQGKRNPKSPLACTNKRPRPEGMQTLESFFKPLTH

SMILES | Potency
O=C(OCC(=O)N1CCCC1=O)c1nc(Cl)c(Cl)c(Cl)c1Cl | inconclusive [inhibitor, single point]
CCOC(=O)c1c(C)sc(-c2c(-c3cc(C)ccc3C)[nH]c3c2c(=O)[nH]c(=O)n3C)c1O | inconclusive [inhibitor, single point]
CCc1ccc(NS(=O)(=O)c2ccc3[nH]cc(C(=O)N4CCCCC4)c(=O)c3c2)cc1 | inconclusive [inhibitor, single point]
COc1ccc2occ(CC(=O)Nc3ccc(S(=O)(=O)Nc4nc(C)cc(C)n4)cc3)c2c1 | inconclusive [inhibitor, single point]
Cc1cc(OC(C)C(=O)NC(Cc2c[nH]c3ccc(O)cc23)C(=O)O)c2c(C)c(C)c(=O)oc2c1 (stereo not given) | inconclusive [inhibitor, single point]
Cc1nc(C)c(C(=O)Nc2ncc([N+](=O)[O-])s2)o1 | inconclusive [inhibitor, partial curve, poor fit]
O=C(c1ccco1)N1C2C=CC(C2)C1(C(F)(F)F)C(F)(F)F (stereo not given) | inconclusive [inhibitor, single point]
O=C(CSc1nnc(Nc2ccccc2F)s1)NC(=O)CN1CCCC1=O | inconclusive [inhibitor, single point]
CC(=O)Nc1ccc(C(=O)Nc2cccc(-c3cnc4ccccc4n3)c2)cc1 | inconclusive [inhibitor, partial curve]
Cc1cccc2c1NC(=O)C2=O | active: 16.9 µM
